Data from US20250223340A1 (BIOTHEUS, published 2025).

B1: Hu-HSA-59-1 (Fc fusion)
chain: EVQLLESGGGLVQPGGSLRLSCAASGFTLDYYAIGWFRQAPGKEREEVSCISSSGGSTNYADSVKGRFTISRDNSKNTVYLQMNSLKPEDTAVYYCAAALLECRVRSWPSDNWGQGTQVTVSS[sequence of human IgG1 Fc with changes omitted]
notes: Humanized from HSA-59
B2: Hu-HSA-PH-8-5 (Fc fusion)
chain: QVQLVESGGGLVQPGGSLRLSCSASGSIWGIYHMGWYRQAPGKQRELVASITVDGSTHYADTVKGRFTISRDNSKNTLYLQMNSLEPEDTAVYYCDIRNVGGDYWGQGTQVTVSS[sequence of human IgG1 Fc with changes omitted]
notes: Humanized from HSA-PH-8

Assays:
human serum albumin [1] = molecular target: T1, human serum albumin (human, UniProt P02768); test: BLI (ForteBio), VHH-Fc on AHQ sensor, pH 5.5
T1 construct: Bought reagent; also called HSA; HSA antigen

human serum albumin [2] = molecular target: T1, human serum albumin; test: BLI (ForteBio), VHH-Fc on AHQ sensor, pH 6.5
human serum albumin [3] = molecular target: T1, human serum albumin; test: BLI (ForteBio), VHH-Fc on AHQ sensor, pH 7.4
mouse serum albumin = molecular target: T2, mouse serum albumin (mouse, UniProt P07724 25-608); test: BLI (ForteBio), VHH-Fc on AHQ sensor, 1:1 model
T2 construct: Bought reagent; also called MSA

cynomolgus serum albumin = molecular target: T3, cynomolgus serum albumin (cynomolgus); test: BLI (ForteBio), VHH-Fc on AHQ sensor, 1:1 model
T3 construct: Bought reagent; also called CSA

human serum albumin [4] = molecular target: T1, human serum albumin; test: BLI (ForteBio), VHH-Fc on AHQ sensor, 100 nM antigen, 1:1 model

Binder	Kd (human serum albumin [1]) [µM]	koff (human serum albumin [1]) [s⁻¹]	kon (human serum albumin [1]) [M⁻¹ s⁻¹]	Kd (human serum albumin [2]) [µM]	koff (human serum albumin [2]) [s⁻¹]	kon (human serum albumin [2]) [M⁻¹ s⁻¹]	Kd (human serum albumin [3]) [µM]	koff (human serum albumin [3]) [s⁻¹]	kon (human serum albumin [3]) [M⁻¹ s⁻¹]	Kd (mouse serum albumin) [µM]	koff (mouse serum albumin) [s⁻¹]	kon (mouse serum albumin) [M⁻¹ s⁻¹]	Kd (cynomolgus serum albumin) [µM]	koff (cynomolgus serum albumin) [s⁻¹]	kon (cynomolgus serum albumin) [M⁻¹ s⁻¹]	Kd (human serum albumin [4]) [µM]	koff (human serum albumin [4]) [s⁻¹]	kon (human serum albumin [4]) [M⁻¹ s⁻¹]
B1	0.0444	0.00478	108000	0.0915	0.00786	86000	0.163	0.0113	69300	0.0104	0.00386	373000	0.0662	0.0185	280000	0.159	0.013	82200
B2	0.00953	0.00166	174000	0.0144	0.002	139000	0.023	0.00303	132000	0.0295	0.00711	241000	0.0125	0.00373	298000	0.0528	0.00627	119000
